To fix the notation:
B1: chr5:92853364:92853365:-_ENSMUSG00000034826_ENSMUST00000038514|mus_mus|FALSE|FALSE (ssRNA)
RNA: GGGAGUUCUACAGUCCGACGAUCGUUUUGUAAGAGCUGCUUGAUCUGAGCGGGAGACAGCUCUGUCCUGGUCAUAGAAAGGGUCACCCCAAGCUGCUGCAGCUGGGCUUUAAUGUUGGCUUGCUCAAAGUGGGCAUACAGUGUCAACAGAGGAUUGAGCAUCA
B2: chr5:37680062:37680063:+_ENSMUSG00000029121_ENSMUST00000031004|mus_hu|mus_mus_mus_hu_False|58_58 (ssRNA)
RNA: GGGAGUUCUACAGUCCGACGAUCUUUGGGUGUAGCUGGUACCUCGUACACAGGACCGUCAUACAUGCCCCUGGAAACACUAUGCAAUCCAAAAACCUUAUUCCUGAUUUUGACGCGCUGGUACAGGUGCUCCGGGAACGCCUUCAACAGAGGAUUGAGCAUCA
B3: 56981117_56985166_585_CDS_ENSMUSG00000045589_ENSMUST00000053681|mouse|control|control (ssRNA)
RNA: GGGAGUUCUACAGUCCGACGAUCGAAGUGCUGUAUGCGGACUCUGCCAUUGUCAUCAUGGACGCAGGCCAUGACAUCGUCACCACCCAUCUUUUUGUCUGAAGAGAAUCCAACCGCGACCCAACCAUCUGUGUCUGCACUCAGCAACAGAGGAUUGAGCAUCA
B4: chr12:105536279:105536280:+_ENSG00000136051_ENST00000332180|hu_mus|hu_hu_hu_mus_True|38_78 (ssRNA)
RNA: GGGAGUUCUACAGUCCGACGAUCAGCACUGAACAUGUAAUGUAAUCUGGCUGCAUCAACAGCAUUUUCAUAUACAUCAUCUAAAUAAAUCGGGAAGACAGCUCGAUGCCAGUAUAAAAAACAGCAGUCACACUGUGCUUGGACCAACAGAGGAUUGAGCAUCA
B5: 112367391_112373583_1708_CDS_ENSMUSG00000031731_ENSMUST00000093157|mouse|control|control (ssRNA)
RNA: GGGAGUUCUACAGUCCGACGAUCCACACUGUUGGUUAUUAACUGAAUCAAGUUAGGAACUGCAUCAUCGCGAACAUAACUUCCUGCCGUUGUCAAGACACGCAUAAUUGUAUCUAUAUGCCACCGUUUGGAAGGUGCGUACUUCAACAGAGGAUUGAGCAUCA
B6: 168281138_168289955_895_3pUTR_ENSG00000130396_ENST00000400822|human|control|control (ssRNA)
RNA: GGGAGUUCUACAGUCCGACGAUCCAAGAAUAAUUUCUUUAGCACCCUUUUCAUCAGAAUGCUGGGCUCCAGGAGGAAGCAUAACCCGGGCGAUGCAGUAAUCCUUAGGGUUUUCUUUUUCCAGACCAUACUUCUCUAAAGCUUCAACAGAGGAUUGAGCAUCA
B7: chr2:179515052:179515053:+_ENSMUSG00000000305_ENSMUST00000000314|mus_hu|mus_mus_mus_hu_False|78_78 (ssRNA)
RNA: GGGAGUUCUACAGUCCGACGAUCGCUGUCCCAUGCAGUCACCGUGAACGCCACCUGCUCUGAGGGGACCUGCAGCUCCCGGGUGGCGAAGACUGUCCCAUCUGCCCCAACUUUGAAGUCCAUGCUGUUGGUCUCAUAUUGUGUCAACAGAGGAUUGAGCAUCA
B8: chr17:53623224:53623225:+_ENSMUSG00000017831_ENSMUST00000017975|perfect_dup|FALSE|FALSE (ssRNA)
RNA: GGGAGUUCUACAGUCCGACGAUCGGCCCGUUGGGUCUUGUUGCGCCUCGACUAGCCAUGUCCAAAUUUGAAAUAAGUCCCUAAUUUCAGACUCUUCAAUGAACUUCCAGAAUUCAAGGGGCCAAUAUUCUUCUUUCUGGAGGUCAACAGAGGAUUGAGCAUCA
B9: chr4:115894766:115894767:+_ENSMUSG00000028698_ENSMUST00000030464|mus_hu|mus_mus_mus_hu_True|68_108 (ssRNA)
RNA: GGGAGUUCUACAGUCCGACGAUCUUCACACGGAAAUUGUACUUCGGGUUUUCCAACGGCCAGUACCGUCCAGCCAAAACUACCCGAACAGGGUCCUCCCCCUCUCUCCUACAGAACACAACAAAAUGCCCCCGAACUUUCAAGCAACAGAGGAUUGAGCAUCA
B10: chr13:42873775:42873776:+_ENSG00000023516_ENST00000025301|hu_hu|FALSE|FALSE (ssRNA)
RNA: GGGAGUUCUACAGUCCGACGAUCAGAAGACGAAAAAAAUGUUUUCUGUAAAUCACUAUCUUUAUCUGAAGCAUUAGAUGACCUAUAGAAACUCCUUUGGGUCCAAGGCUCUGAAAUUGAUGUUGUGACUGAAGUUUUCACAGACAACAGAGGAUUGAGCAUCA
B11: chr2:14037654:14037655:+_ENSMUSG00000026718_ENSMUST00000102960|mus_mus|FALSE|FALSE (ssRNA)
RNA: GGGAGUUCUACAGUCCGACGAUCAUGACCCUUAUUUAAUACAUUGCUUACUUCACUAGCAAAGUCUCUUGAACAUACUUCUAAGUGAAAAAUUUUGCCACAGUUUGAUACACAUGCUCCCAGAAGAGUUAAGGCUUGCAUAGCCAACAGAGGAUUGAGCAUCA
B12: 49510474_49510594_1284_3pUTR_ENSG00000101126_ENST00000396029|human|control|control (ssRNA)
RNA: GGGAGUUCUACAGUCCGACGAUCUUUGUGUGCCCAAUCAUGGCAGUGACCUGAUAGCCUAUACGUUCAUGGUCUUCGAUGACAUGCUGUACCAAAGCUUCAUAGGACUUUGGCAUGAAAAGGCAUCGCUUGCAGUGAAUACUACAACAGAGGAUUGAGCAUCA
B13: chr13:21172813:21172814:+_ENSG00000032742_ENST00000351808|hu_mus|FALSE|FALSE (ssRNA)
RNA: GGGAGUUCUACAGUCCGACGAUCAAUAUUUCCCAUAUUCACUUUCAGUCUUCCUGCAUUGCUAAACAUCUUGUUUUUCACUAUAACUUGGUAUGUGUUCAGUGCUUCUGCAUACAUUUCAUUAGCAGAAUACUGACUGGCCAACAACAGAGGAUUGAGCAUCA
B14: chr22:19452774:19452775:-_ENSG00000070010_ENST00000399523|hu_hu|hu_hu_hu_mus_False|98_108 (ssRNA)
RNA: GGGAGUUCUACAGUCCGACGAUCCUUUUCAUUAUAGUUGAUGGCAAUCACAUCUCCAGUCGUCAGACAGGCGAAGUUUCUCAAUGCAUUUUCUAAUACCGCUUUAGGGUUGGUAAUAUCCAGGAAGUCUGGGCUCUGAGGCUGCAACAGAGGAUUGAGCAUCA
B15: chr10:17279241:17279242:+_ENSG00000026025_ENST00000224237|hu_hu|motif|central (ssRNA)
RNA: GGGAGUUCUACAGUCCGACGAUCUUUUUAUUCAAGGUCAUCGUGAUGCUGAGAAGUUUCGUUGAUAACCUGUCCAUCUCGGGUUUCAACCGUCUUAAUCAGAAGUGUCCUUUUUGAGUGGGUAUCAACCAGAGGGAGUGAAUCCAACAGAGGAUUGAGCAUCA
B16: chr12:39763582:39763583:-_ENSG00000139116_ENST00000544797|hu_mus|hu_hu_hu_mus_False|1_58 (ssRNA)
RNA: GGGAGUUCUACAGUCCGACGAUCCUCUAGGAACUGGGCAUUCACUUUGAAUUCAGGAGGGGGCAGCCCGUUUUUAAUUGCUAUGUGCUUUUUCUCAUCAAUACUCUUGAACAGGUGUCUAACAGCACGAGAGAUGAUACCCAGCAACAGAGGAUUGAGCAUCA
B17: chr2:47387770:47387771:-_ENSG00000143933_ENST00000272298|hu_mus|hu_hu_hu_mus_True|1_18 (ssRNA)
RNA: GGGAGUUCUACAGUCCGACGAUCAAGGUUUAAGGACAAUGACAGUAAGAUAAGGGAAGAAAACAUGGAGGAAUGAAGUCCUAAUUACUAUACAUGCAUAUUUUUUGACAGUAGGGGAGAAACCUUUUUUACAGAUAUUACAAACAACAGAGGAUUGAGCAUCA
B18: 145533498_145537040_1022_CDS_ENSG00000133706_ENST00000545646|human|control|control (ssRNA)
RNA: GGGAGUUCUACAGUCCGACGAUCCUUGUAUGAUGUUAAAGGUGCAGAAAGUGAUGCACCAAGAAUUUCCUCCCCCAUUAAUUCCUUAACAACAGGCACCACGCCAUUGUCUUUGGUAAAGCCCUGGUAUGACAUAUUCCUGGCCAACAGAGGAUUGAGCAUCA
B19: 54676041_54676254_540_CDS_ENSG00000135486_ENST00000330752|human|control|control (ssRNA)
RNA: GGGAGUUCUACAGUCCGACGAUCAGCACUAGCCAUCUCUUGCUUUGACAGGGCUUUUCUAACUUCACAGUUGUGGCCAUUCACAGUAUGGUAUUUCUGAAUGACAAUCUUAUCCACGGAGUCAUGGUCGUCAAAGGUUACAAACAACAGAGGAUUGAGCAUCA
B20: chr2:202488911:202488912:-_ENSG00000155755_ENST00000286196|hu_mus|hu_hu_hu_mus_False|8_108 (ssRNA)
RNA: GGGAGUUCUACAGUCCGACGAUCAUUUAACAUUUUUUCAUAAUCUCCAGUAGCAUUUCAGCAUUAUGUAACAAAAGCUCAAUUGUAAAUACAUGUAUCUUAUAAAAAUACACUUAAAAACACGAGUAAAAAUGGGAGGCGCCACAACAGAGGAUUGAGCAUCA
B21: chr14:89338683:89338684:+_ENSG00000165533_ENST00000346301|hu_hu|motif|central (ssRNA)
RNA: GGGAGUUCUACAGUCCGACGAUCGUUGUUGUUGUUGACCAGAGCCAGCCUGAAGCACUGAUGGGCCAAAUUUGUAUCUCCGGUUCCCACAGCUACAUGUCCCAAGUUGUACCAGACAUCAGCUGCCUCUUCUUCAUUUUCAGCCAACAGAGGAUUGAGCAUCA
B22: chr7:36506639:36506640:-_ENSMUSG00000043671_ENSMUST00000051377|mus_hu|motif|central (ssRNA)
RNA: GGGAGUUCUACAGUCCGACGAUCGAACAGCACUAAUGCUUGCAUCAGCAUCAUAAAUUGAUUAAAUUGCCAUGUCAGACGGAAGAGAAAAGUUGAUAUGAAAAUGGCAAGAAGUGUCAGCCUUUCAGAAAGAGGCUGUAAGUUCAACAGAGGAUUGAGCAUCA

This is one part of the list.

In this assay the target is T1, UNK ZnF1-3 (human, UniProt Q9C0B0 31-174).
T1 sequence: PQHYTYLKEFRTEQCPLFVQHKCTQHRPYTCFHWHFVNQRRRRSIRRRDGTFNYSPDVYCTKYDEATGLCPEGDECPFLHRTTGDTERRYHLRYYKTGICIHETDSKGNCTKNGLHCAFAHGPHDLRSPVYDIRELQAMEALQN
In words: nsRBNS (natural sequence RNA bind-n-seq); RBNS binding buffer (assumed for nsRBNS): 25 mM Tris pH 7.5, 150 mM KCl, 3 mM MgCl2, 0.01% Triton X-100, 500 ug/ml BSA, 20 U/ml SUPERase-In, 4 C; UNK is unkempt and MSI1 is Musashi-1; names of the RNAs are library labels; protein concentration not given here; high values mean tight binding.
In turn, B1 displayed a binding signal of 0.894 enrichment R.

In turn, B2 came in with a binding signal of 0.601 enrichment R.

Molecule B3 registered a binding signal of 0.777 enrichment R.

Consider B4, for which the binding signal came out at 2.84 enrichment R.

In turn, B5 gave a binding signal of 0.765 enrichment R.

B6 gave a binding signal of 0.899 enrichment R.

Turning to B7, the binding signal turned out to be 0.713 enrichment R.

Take B8: the binding signal came out at 1.09 enrichment R.

Consider B9, for which the binding signal came to 1.01 enrichment R.

In turn, B10 registered a binding signal of 0.809 enrichment R.

Molecule B11 registered a binding signal of 1.45 enrichment R.

For the molecule B12, the binding signal was 0.607 enrichment R.

For B13, the binding signal amounted to 0.489 enrichment R.

The molecule B14 gave a binding signal of 0.873 enrichment R.

Turning to B15, the binding signal came to 0.789 enrichment R.

B16 returned a binding signal of 1.58 enrichment R.

B17 gave a binding signal of 2.22 enrichment R.

For B18, the binding signal worked out at 1.47 enrichment R.

Molecule B19 yielded a binding signal of 1.07 enrichment R.

Turning to B20, the binding signal amounted to 0.824 enrichment R.

As to B21, the binding signal is 0.686 enrichment R.

For B22, the binding signal came out at 2.81 enrichment R.

The values above are taken from article PMC12136788.
